{"source": "patent US7745645B2", "about": "“Sulfonamide derivatives of xanthene compounds” (Pierce Biotechnology, Inc., priority 2007, dated 2010)", "molecules": {"B1": {"name": "Formula V conjugated NeutrAvidin: compound of formula V conjugated to NeutrAvidin Biotin Binding Protein (conjugate, UniProt P02701 25-152, looked up)", "Avidin": "ARKCSLTGKWTNDLGSNMTIGAVNSRGEFTGTYITAVTATSNEIKESPLHGTQNTINKRTQPTFGFTVNWKFSESTTVFTGQCFIDRNGKEVLKTMWLLRSSVNDIGDDWKATRVGINIFTRLRTQKE", "modifications": "deglycosylated avidin; formula V dye label"}}, "test_system": "Biotinylated-BSA", "assay": "Plate assay using Streptavidin and NeutrAvidin conjugates", "format": "binding", "conditions": "conjugate diluted 0.004 mg/ml in PBS; Biotinylated-BSA coated plates", "procedure": "Data for functional assays using the compound of formula V conjugated each of Streptavidin and NeutrAvidin® are shown in FIGS. 2 and 3, respectively. The assays were performed on serially diluted 96-well white opaque Biotinylated-BSA coated plates (2 μg/ml to 0 μg/ml). The plates were washed 3×200 μl with PBS-0.05% Tween and 1×200 μl with PBS buffer. Formula V-Streptavidin (SA) and Formula V-NeutrAvidin® (NA) conjugates were diluted 0.004 mg/ml in PBS buffer. Diluted conjugates were applied to the wells of the plates (100 μl/well), the plates were covered and protected from light, incubated for one hour, then washed as previously described. PBS buffer was added to the plates (100 μl/well) and the fluorescent intensity was captured using the TECAN Safire® at green laser setting. Commercially available Alexa Fluor® 488-SA (Molecular Probes) was diluted to the same concentration and evaluated as previously described with reference to the formula V conjugated SA.", "data": [{"molecule": "B1", "values": [{"measurement": "biotinylated BSA detected at a level of", "value": 2, "unit": "ng/well"}]}]}
